Numbering of substitutions follows the chain as printed. Results are given in words; binding and its absence hold for the method and conditions named. In cells and extracts the contact can be indirect. Some binding calls cover weakened binding; strength is not graded here. For some assays here: Where a sequence is shown, tags or fusion partners need not be part of it.
Tests used:
[1] = biological target: T1, Flag-tagged human GLDC (glycine decarboxylase), wild type (human) (UniProt P23378); test: co-IP; tagged proteins overexpressed in transfected cells (HEK293/EGFR treated with EGF 100 ng/ml for 30 min, or co-expression of SRC); NP-40 lysis buffer, Protein-G Sepharose, 4 °C 3 h, washes with lysis buffer containing 500 mM NaCl; immunoblotting
T1 sequence (chain, phosphotyrosine at Y993 and Y1008 after EGF stimulation or SRC overexpression): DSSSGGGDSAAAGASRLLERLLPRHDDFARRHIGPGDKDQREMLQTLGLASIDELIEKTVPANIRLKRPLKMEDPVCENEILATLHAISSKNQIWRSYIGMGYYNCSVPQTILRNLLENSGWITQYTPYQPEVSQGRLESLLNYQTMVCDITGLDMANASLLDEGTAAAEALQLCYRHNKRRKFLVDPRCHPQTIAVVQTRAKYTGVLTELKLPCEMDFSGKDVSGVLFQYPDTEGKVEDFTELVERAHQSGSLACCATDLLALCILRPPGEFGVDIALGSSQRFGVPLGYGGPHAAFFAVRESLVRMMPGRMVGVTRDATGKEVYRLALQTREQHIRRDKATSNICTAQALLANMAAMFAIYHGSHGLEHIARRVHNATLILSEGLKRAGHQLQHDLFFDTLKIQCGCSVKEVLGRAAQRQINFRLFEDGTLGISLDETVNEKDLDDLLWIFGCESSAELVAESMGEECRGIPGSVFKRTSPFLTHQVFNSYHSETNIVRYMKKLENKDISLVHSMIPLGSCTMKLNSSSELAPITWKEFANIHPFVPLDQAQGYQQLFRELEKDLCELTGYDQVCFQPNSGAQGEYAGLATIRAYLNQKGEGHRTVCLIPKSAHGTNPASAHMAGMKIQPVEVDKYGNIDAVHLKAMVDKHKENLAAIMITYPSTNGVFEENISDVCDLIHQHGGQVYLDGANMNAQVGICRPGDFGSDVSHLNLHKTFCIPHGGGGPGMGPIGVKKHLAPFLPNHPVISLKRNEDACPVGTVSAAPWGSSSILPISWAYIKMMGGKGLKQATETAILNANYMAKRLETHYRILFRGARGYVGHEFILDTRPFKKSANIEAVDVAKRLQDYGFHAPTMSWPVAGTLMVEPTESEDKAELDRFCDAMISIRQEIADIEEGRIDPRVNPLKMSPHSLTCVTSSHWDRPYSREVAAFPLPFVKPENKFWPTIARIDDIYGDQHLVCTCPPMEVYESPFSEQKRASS

Sequences of proteins named here, by UniProt entry; tags and fusion partners are left off. A change or cut given only in a name is not applied to a line headed by its entry. A line that says so, or that is headed by a name, gives the form on record, which may keep a tag or linker.
UniProt P42224: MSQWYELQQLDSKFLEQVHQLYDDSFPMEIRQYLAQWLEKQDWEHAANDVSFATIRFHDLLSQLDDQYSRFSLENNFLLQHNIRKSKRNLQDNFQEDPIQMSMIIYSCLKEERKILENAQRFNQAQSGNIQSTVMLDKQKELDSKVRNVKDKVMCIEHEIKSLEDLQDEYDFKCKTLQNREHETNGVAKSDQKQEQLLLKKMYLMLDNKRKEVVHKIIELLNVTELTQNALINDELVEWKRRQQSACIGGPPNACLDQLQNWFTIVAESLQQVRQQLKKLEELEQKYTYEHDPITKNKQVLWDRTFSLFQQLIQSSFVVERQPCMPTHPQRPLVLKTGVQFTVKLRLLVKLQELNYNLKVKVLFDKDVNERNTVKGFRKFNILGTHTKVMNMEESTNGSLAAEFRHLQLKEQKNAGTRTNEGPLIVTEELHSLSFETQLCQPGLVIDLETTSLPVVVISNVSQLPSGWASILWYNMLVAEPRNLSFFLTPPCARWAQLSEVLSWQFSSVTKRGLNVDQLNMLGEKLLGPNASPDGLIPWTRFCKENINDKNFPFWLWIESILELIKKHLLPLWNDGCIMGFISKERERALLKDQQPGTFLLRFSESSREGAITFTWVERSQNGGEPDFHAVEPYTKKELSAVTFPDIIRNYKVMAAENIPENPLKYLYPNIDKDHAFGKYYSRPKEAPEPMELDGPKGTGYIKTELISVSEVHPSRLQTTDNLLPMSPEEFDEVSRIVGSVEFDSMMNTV
UniProt O96019: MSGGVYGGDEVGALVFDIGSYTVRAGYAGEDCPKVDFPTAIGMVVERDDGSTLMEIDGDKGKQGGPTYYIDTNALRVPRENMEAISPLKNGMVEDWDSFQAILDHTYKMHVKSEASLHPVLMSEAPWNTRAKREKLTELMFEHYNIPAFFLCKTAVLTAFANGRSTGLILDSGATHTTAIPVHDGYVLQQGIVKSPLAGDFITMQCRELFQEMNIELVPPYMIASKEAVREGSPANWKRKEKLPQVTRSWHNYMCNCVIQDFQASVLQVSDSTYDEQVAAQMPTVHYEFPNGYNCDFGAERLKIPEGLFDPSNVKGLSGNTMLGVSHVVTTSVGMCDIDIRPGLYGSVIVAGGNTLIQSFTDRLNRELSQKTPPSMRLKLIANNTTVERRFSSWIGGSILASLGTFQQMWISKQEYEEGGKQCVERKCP
UniProt Q9H8M2: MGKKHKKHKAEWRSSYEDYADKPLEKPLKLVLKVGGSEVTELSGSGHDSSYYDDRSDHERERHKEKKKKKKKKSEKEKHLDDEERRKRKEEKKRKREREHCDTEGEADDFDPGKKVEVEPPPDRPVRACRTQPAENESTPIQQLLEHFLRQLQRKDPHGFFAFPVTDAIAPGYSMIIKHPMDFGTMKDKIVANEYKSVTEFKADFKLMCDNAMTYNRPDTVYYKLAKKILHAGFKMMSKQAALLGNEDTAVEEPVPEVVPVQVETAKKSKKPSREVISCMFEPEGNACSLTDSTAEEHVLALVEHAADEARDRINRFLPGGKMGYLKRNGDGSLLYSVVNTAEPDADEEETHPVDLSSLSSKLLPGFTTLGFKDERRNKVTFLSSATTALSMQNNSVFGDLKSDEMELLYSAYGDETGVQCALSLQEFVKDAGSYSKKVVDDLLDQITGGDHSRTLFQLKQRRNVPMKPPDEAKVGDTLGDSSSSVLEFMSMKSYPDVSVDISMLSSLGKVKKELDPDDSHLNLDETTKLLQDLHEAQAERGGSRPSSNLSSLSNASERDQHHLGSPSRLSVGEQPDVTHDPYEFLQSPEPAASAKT
UniProt Q9NPF5: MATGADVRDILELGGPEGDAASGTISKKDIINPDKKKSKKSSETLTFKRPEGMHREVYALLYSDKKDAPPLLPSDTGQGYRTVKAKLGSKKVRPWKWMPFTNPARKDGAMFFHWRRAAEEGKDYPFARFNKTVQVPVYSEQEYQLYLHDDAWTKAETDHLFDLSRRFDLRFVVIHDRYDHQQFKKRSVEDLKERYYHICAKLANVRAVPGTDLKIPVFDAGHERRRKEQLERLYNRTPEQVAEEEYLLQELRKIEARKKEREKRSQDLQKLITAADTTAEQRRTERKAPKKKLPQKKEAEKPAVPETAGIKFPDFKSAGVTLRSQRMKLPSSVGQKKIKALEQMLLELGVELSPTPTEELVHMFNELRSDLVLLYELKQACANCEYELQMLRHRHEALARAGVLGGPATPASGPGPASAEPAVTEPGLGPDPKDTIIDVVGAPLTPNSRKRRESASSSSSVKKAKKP
UniProt O00629: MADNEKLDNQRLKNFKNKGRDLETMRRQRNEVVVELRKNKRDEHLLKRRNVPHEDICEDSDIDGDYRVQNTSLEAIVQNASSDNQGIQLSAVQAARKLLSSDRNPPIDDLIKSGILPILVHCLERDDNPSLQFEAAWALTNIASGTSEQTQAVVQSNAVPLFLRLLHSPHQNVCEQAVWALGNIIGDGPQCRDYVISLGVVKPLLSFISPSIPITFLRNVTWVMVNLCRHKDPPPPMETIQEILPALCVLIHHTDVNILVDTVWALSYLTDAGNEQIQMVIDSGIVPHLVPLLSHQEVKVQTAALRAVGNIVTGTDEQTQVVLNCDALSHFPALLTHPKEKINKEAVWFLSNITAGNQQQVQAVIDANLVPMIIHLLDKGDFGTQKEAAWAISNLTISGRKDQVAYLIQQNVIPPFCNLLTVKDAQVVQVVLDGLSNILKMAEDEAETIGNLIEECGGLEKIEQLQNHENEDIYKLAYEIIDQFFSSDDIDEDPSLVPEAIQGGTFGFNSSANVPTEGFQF
UniProt O00505: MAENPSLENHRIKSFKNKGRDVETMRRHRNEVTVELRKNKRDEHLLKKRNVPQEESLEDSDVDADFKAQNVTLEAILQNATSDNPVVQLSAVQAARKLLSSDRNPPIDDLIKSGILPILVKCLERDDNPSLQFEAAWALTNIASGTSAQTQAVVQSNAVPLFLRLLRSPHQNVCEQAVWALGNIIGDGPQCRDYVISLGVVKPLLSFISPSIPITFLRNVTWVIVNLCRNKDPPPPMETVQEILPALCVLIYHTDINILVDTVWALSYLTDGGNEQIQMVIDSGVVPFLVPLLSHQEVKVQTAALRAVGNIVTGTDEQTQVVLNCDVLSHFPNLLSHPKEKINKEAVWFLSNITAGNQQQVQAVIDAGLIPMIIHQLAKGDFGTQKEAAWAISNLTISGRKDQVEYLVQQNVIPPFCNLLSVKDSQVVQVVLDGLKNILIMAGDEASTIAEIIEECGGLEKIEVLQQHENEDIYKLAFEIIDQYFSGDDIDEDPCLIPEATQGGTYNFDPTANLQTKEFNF
UniProt P51532: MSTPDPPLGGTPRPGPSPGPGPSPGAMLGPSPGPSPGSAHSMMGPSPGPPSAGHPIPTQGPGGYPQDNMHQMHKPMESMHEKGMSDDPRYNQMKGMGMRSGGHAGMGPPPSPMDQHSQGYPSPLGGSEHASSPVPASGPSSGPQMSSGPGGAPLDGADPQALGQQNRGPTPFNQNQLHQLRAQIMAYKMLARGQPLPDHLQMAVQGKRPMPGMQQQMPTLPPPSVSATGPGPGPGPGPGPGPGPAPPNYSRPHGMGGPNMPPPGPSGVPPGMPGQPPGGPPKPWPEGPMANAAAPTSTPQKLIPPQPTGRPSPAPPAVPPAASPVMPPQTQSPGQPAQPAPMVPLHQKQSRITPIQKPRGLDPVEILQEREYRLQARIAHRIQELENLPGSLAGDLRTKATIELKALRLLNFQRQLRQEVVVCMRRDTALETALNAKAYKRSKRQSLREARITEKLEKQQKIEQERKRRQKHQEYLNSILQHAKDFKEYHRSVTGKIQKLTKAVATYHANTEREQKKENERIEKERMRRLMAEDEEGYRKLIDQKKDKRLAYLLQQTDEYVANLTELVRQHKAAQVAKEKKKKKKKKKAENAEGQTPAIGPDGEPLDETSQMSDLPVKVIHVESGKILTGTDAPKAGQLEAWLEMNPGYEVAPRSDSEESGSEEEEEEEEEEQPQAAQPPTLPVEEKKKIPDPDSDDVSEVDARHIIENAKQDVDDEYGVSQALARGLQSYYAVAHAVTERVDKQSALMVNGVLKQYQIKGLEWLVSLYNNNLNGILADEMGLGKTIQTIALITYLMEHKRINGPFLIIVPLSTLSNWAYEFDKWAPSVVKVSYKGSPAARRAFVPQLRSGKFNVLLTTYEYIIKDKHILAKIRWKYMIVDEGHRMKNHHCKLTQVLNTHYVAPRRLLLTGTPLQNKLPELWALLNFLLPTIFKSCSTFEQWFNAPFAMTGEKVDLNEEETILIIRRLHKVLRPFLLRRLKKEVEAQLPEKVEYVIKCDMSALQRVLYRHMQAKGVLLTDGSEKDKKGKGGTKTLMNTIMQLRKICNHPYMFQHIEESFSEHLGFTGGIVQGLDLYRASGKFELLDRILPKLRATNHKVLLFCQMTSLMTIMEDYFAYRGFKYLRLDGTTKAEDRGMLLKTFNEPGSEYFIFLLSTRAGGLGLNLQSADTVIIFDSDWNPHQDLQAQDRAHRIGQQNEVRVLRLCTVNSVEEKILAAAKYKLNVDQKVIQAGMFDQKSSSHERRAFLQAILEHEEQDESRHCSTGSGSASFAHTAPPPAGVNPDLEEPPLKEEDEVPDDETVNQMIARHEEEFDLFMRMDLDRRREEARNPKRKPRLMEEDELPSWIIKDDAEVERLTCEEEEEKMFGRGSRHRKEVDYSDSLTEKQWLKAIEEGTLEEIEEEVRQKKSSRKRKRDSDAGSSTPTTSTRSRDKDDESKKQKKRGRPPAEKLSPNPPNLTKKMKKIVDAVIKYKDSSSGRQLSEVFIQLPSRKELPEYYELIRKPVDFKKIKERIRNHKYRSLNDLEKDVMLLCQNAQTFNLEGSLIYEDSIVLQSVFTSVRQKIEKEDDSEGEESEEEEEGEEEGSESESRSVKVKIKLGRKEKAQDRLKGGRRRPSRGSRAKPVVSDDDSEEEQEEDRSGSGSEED
UniProt Q12824: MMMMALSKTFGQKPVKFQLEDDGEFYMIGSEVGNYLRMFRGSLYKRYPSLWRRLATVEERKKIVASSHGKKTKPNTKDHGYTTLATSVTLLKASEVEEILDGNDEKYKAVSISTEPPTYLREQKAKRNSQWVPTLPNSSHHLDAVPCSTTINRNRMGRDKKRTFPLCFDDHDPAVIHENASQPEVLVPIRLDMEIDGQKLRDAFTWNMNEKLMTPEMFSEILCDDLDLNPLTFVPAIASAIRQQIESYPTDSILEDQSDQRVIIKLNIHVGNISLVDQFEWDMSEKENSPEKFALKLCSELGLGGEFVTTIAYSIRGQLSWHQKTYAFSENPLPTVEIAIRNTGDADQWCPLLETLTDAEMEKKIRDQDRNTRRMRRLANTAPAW
UniProt Q969G3: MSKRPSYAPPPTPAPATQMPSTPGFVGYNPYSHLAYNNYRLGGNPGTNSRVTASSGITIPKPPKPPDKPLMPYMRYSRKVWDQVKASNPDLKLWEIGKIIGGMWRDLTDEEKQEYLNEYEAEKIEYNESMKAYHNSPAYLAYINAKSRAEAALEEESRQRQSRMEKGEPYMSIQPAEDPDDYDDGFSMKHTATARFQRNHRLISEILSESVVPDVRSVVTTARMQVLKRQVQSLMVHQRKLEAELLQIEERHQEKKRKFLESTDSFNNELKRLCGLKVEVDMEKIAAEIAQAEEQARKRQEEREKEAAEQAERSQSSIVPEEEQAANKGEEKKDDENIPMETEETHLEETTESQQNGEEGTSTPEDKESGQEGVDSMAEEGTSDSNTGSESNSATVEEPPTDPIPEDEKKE
SMARCE1^ILV-A reconstituted in SMARCE1-knockout A549 cells (Q969G3, form named): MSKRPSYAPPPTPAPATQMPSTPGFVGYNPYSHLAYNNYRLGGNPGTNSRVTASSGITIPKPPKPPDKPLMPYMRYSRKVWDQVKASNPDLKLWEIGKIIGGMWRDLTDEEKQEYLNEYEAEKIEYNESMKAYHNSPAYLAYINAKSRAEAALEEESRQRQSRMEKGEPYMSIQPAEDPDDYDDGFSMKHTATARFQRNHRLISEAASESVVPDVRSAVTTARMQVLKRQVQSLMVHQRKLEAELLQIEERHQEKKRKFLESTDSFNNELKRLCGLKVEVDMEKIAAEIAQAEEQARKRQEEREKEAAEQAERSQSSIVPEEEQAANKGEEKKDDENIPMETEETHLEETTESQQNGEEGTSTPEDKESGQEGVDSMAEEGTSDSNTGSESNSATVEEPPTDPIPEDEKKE
SMARCE1^Y73F/170F (Q969G3, form named): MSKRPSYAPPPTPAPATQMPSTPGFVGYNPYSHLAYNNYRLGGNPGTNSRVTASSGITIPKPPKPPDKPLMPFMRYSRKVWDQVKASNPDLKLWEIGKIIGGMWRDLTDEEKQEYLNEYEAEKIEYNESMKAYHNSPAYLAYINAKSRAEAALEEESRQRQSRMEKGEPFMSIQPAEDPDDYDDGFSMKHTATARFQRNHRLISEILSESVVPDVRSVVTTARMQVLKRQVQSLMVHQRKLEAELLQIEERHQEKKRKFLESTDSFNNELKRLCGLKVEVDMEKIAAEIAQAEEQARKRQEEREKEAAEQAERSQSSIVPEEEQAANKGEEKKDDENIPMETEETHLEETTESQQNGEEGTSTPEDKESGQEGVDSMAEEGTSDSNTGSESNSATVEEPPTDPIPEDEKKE

[2] = biological target: T2, GLDC (glycine decarboxylase), endogenous (human (endogenous in A549)) (UniProt P23378); test: co-IP; endogenous proteins, A549 cells (serum-starved then EGF 100 ng/ml 30 min, or cultured with EGF 20 ng/mL 24 h; also control, GLDC-, DMAP1- or SMARCE1-deficient cells); NP-40 lysis buffer, washes with 500 mM NaCl; immunoblotting
T2 sequence (chain, phosphotyrosine at Y993 and Y1008 after EGF stimulation): T1 sequence (chain, phosphotyrosine at Y993 and Y1008 after EGF stimulation or SRC overexpression)

[3] = biological target: T2, GLDC (glycine decarboxylase), endogenous (human (endogenous in A549)); test: co-IP; endogenous proteins, subcellular (nuclear) fractions of cells serum-starved 12 h and treated with or without EGF 100 ng/ml for 6 h; immunoblotting
[4] = biological target: STAT1, endogenous (human (endogenous in A549)) (UniProt P42224); test: co-IP; endogenous proteins, A549 cells (serum-starved then EGF 100 ng/ml 30 min, or cultured with EGF 20 ng/mL 24 h; also control, GLDC-, DMAP1- or SMARCE1-deficient cells); NP-40 lysis buffer, washes with 500 mM NaCl; immunoblotting
[5] = biological target: STAT1, transfected (UniProt P42224); test: co-IP; tagged proteins overexpressed in transfected cells (HEK293/EGFR treated with EGF 100 ng/ml for 30 min, or co-expression of SRC); NP-40 lysis buffer, Protein-G Sepharose, 4 °C 3 h, washes with lysis buffer containing 500 mM NaCl; immunoblotting
[6] = biological target: T2, GLDC (glycine decarboxylase), endogenous (human (endogenous in A549)); test: co-IP; SMARCE1-knockout A549 cells reconstituted with SMARCE1 or its mutants, cultured with EGF 20 ng/mL 24 h; partners endogenous; immunoblotting
[7] = biological target: STAT1, endogenous (human (endogenous in A549)) (UniProt P42224); test: as above
[8] = biological target: T3, Flag-GLDC^Y993F/Y1008F (human) (UniProt P23378); test: co-IP; tagged proteins overexpressed in transfected cells (HEK293/EGFR treated with EGF 100 ng/ml for 30 min, or co-expression of SRC); NP-40 lysis buffer, Protein-G Sepharose, 4 °C 3 h, washes with lysis buffer containing 500 mM NaCl; immunoblotting
T3 sequence: T1 sequence (chain, phosphotyrosine at Y993 and Y1008 after EGF stimulation or SRC overexpression) with Y958F, Y973F

[9] = biological target: T4, GLDC^L998A/V999A (human) (UniProt P23378); test: as above
T4 sequence: T1 sequence (chain, phosphotyrosine at Y993 and Y1008 after EGF stimulation or SRC overexpression) with L963A, V964A

| Substance | binding [1] | also measured |
| --- | --- | --- |
| ACTL6A (from UniProt O96019 1-429) | no binding | – |
| BRD9 (from UniProt Q9H8M2 1-597) | no binding | – |
| DMAP1, endogenous (from UniProt Q9NPF5 1-467) | – | binding [2]: binds; binding [3]: binds |
| DMAP1^L145A/W152A (from UniProt Q9NPF5 1-467) | no binding | – |
| Importin α3 (from UniProt O00629 1-521) | no binding | – |
| Importin α4 (from UniProt O00505 1-521) | no binding | – |
| Importin α5 (from UniProt P52294 1-538) | no binding | – |
| Importin α6 (from UniProt O15131 1-539) | no binding | – |
| Importin α7 (from UniProt O60684 1-536) | no binding | – |
| SMARCA4 (from UniProt P51532 1-1647) | no binding | – |
| SMARCB1 (from UniProt Q12824 1-385) | no binding | – |
| SMARCD1 (from UniProt Q96GM5 1-515) | no binding | – |
| SMARCE1, endogenous (from UniProt Q969G3 1-411) | – | binding [2]: binds; binding [4]: binds; binding [3]: binds |
| SMARCE1^I206A/L207A/V218A, transfected (from UniProt Q969G3 1-411) | – | binding [5]: no binding |
| SMARCE1^ILV-A reconstituted in SMARCE1-knockout A549 cells (from UniProt Q969G3 1-411) | – | binding [6]: binds; binding [7]: no binding |
| SMARCE1^L93A/I96A/I99A (from UniProt Q969G3 1-411) | no binding | – |
| SMARCE1^Y73F, transfected (from UniProt Q969G3 1-411) | binds | – |
| SMARCE1^Y73F/170F (from UniProt Q969G3 1-411) | – | binding [5]: binds |
| SMARCE1^Y170F, transfected (from UniProt Q969G3 1-411) | no binding | – |
| human DMAP1, wild type, transfected (from UniProt Q9NPF5 1-467) | binds | binding [8]: no binding; binding [9]: no binding |
| human SMARCE1, wild type, transfected (from UniProt Q969G3 1-411) | binds | binding [8]: no binding; binding [9]: no binding; binding [5]: binds |
| wild-type SMARCE1 reconstituted in SMARCE1-knockout A549 cells (from UniProt Q969G3 1-411) | – | binding [6]: binds; binding [7]: binds |

Source: PMC12528744
